PubChem BioAssay AID485367 (National Center for Advancing Translational Sciences (NCATS), 2010)
Among all 330,000 compounds or so, about 560 (0.17%) were called active. This list was built around the results that the source calls inconclusive (neither active nor inactive); the mix of calls is not that of the screen. The call rests on the fitted dose curve; in most records, active means well fitted inhibition curve with a large enough effect; inconclusive means small, poorly fitted or top-dose-only effect, or effect the other way; inactive means flat fitted curve, though single readings scatter. No potency is given beside an inconclusive call; the fits are too rough.

The compounds below were run against ATP-dependent 6-phosphofructokinase (Trypanosoma brucei brucei) (UniProt O15648) (assay: qHTS Assay to Find Inhibitors of T. brucei phosphofructokinase). Conditions: T. brucei PFK, ADP-Glo luminescence; activity, negative = inhibition: at 57.5 µM (top of the series).
Method in brief: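 Compounds were pin-transferred as a titration series up to 57 uM into substrate buffer (0.5 mM F6P, 0.1 mM ATP, pH 8.0), then 1.25 nM PFK was added and reactions ran 45 min before ADP-Glo detection.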
Further: nearly all actives have a fitted effect of over 60% in size.
Potency means the concentration at half of the fitted maximal effect; tags describe the fitted curve by direction and shape.
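Wherever activity, negative = inhibition is given: 0% = uninhibited 1x PFK enzyme wells and -100% = no-enzyme wells.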

Sequence of UniProt O15648 (O15648 whole entry, looked up): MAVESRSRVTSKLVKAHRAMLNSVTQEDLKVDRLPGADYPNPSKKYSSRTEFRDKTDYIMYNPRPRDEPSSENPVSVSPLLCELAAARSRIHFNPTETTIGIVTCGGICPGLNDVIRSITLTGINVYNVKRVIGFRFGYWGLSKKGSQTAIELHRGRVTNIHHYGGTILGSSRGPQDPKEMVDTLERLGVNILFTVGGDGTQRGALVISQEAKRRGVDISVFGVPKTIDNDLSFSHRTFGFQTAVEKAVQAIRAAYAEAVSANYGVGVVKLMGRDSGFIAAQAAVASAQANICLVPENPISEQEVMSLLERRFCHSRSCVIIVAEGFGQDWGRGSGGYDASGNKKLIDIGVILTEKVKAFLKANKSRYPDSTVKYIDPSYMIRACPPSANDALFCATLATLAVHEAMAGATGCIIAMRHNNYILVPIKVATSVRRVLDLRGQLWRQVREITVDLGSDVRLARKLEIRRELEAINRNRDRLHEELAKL

| SMILES | Potency | activity, negative = inhibition |
| --- | --- | --- |
| NC(=O)C1(N2CCCCC2)CCN(C(=S)Nc2ccc(S(N)(=O)=O)cc2)CC1 | inconclusive [falling, single point] | – |
| Cc1nnc(Sc2cc(NCCCO)c([N+](=O)[O-])c3nonc23)s1 | active: 6.01 µM | – |
| CCOC(=O)c1ccc(N=Cc2nc(-c3ccccc3)oc2OC(C)=O)cc1 | inconclusive [falling, single point] | – |
| CCOc1ccc(NC(=O)CCC(=O)c2ccc(OC)cc2)cc1 | – | inactive: 0.284% |
| Cc1ccc(Nc2nc(N)nc(CSc3nnnn3-c3ccccc3)n2)cc1 | – | inactive: 0.589% |
| O=[N+]([O-])c1c(Nc2ccccc2O)cc(Cl)c2nonc12 | inconclusive [falling, single point] | – |
| O=C(NC1CCCC1)c1cc(S(=O)(=O)N2CCCC2)ccc1Cl | – | inactive: -7.81% |
| CC(=O)Nc1sc(N/N=C\c2ccccc2Cl)nc1-c1cccs1 | – | inactive: 0.519% |
| COc1cc(NC(=O)c2nccnc2C(=O)O)cc(OC)c1 | inconclusive [falling, single point] | – |
| Cc1c(Cl)cnc(NC(=O)COC(=O)/C=C/c2ccco2)c1Cl | inconclusive [falling, single point] | – |
| Cn1c(=O)c2c(SCC(=O)N3CCCc4ccccc43)nc(C3CC3)nc2n(C)c1=O | inconclusive [falling, single point] | – |
| O=C(NCc1cccc(Cl)c1)c1ccc2c(c1)OCCO2 | active: 23.9 µM | – |
| O=C(NNC(=O)c1ccncc1)Nc1ccc([N+](=O)[O-])cc1 | inconclusive [falling, partial curve] | – |
| O=C(N/N=C/c1ccnc2ccccc12)c1ccccc1O | inconclusive [activator, partial curve, poor fit] | – |
| CCC[n+]1c(C)sc2c3c(ccc21)CCCC3 | – | inactive: 7.29% |
| COc1ccccc1Nc1nc(N)nc(CN2CCN(c3ccccc3F)CC2)n1 | inconclusive [falling, single point] | – |
| S=C(NCc1ccc(Cl)c(Cl)c1)Nc1ccc2c(c1)OCO2 | inconclusive [falling, single point] | – |
| Cc1ccc(C)n1-c1ccc(C(=O)NCc2ccncc2)cc1 | – | inactive: -0.299% |
| CCCc1ccccc1OCCNC(C)=O | – | inactive: -9.61% |
| COc1ccc(CN(C)C2CCCCC2)cc1 | – | inactive: -7.24% |
| COCCN(C(=O)COC(=O)Cc1coc2cc(C)ccc12)c1c(N)n(Cc2ccccc2)c(=O)[nH]c1=O | – | inactive: -14.9% |
| O=C(O)c1ccccc1NS(=O)(=O)c1cccc(-n2sc3ccccc3c2=O)c1 | active: 2.39 µM | – |
| CCn1c(C)c2c([n+]1CC)CC(C)(C)CC2=O | – | inactive: -0.0894% |
| COc1cccc(NC(=O)COc2ccc(C(=S)N3CCN(C)CC3)cc2OC)c1 | inconclusive [falling, single point] | – |
| C=C(C)C(=O)Nc1cccc(C2=NOC3(C2)C[C@@H](C(N)=O)N(C(=O)/C(C)=C/C)C3)c1 (some centres not stated) | active: 3.38 µM | – |
| CCN1/C(=C/c2ccc3cc(C)cc(C)c3[n+]2CC)Sc2cc(C)ccc21 | inconclusive [activator, single point] | – |

| SMILES | Potency | activity, negative = inhibition |
| --- | --- | --- |
| O=C(O)c1ccc(C=C(c2nc3ccccc3s2)c2nc3ccccc3s2)cc1 | – | inactive: 28.1% |
| Cc1ccc(C)c(NC(=O)CN(C)C(=O)c2cccc(-n3cccc3)c2)c1 | inconclusive [falling, full curve] | – |
| COc1cccc(NC(=O)COC(=O)CC(NC(N)=O)c2ccc(Cl)cc2)c1 (configuration not stated) | – | inactive: 1.88% |
| Cc1cc(NS(=O)(=O)c2ccc(NC(=O)COc3ccc(Br)cc3)cc2)nc(C)n1 | inconclusive [falling, partial curve] | – |
| O=C(Cn1nnnc1CN1CCOCC1)N1CCC(c2cccc(Cl)c2)C1 (configuration not stated) | – | inactive: -14.1% |
| O=C(Oc1ccc2c(c1)O/C(=C\c1ccncc1)C2=O)c1cccs1 | inconclusive [falling, single point] | – |
| O=C(Cc1ccc([N+](=O)[O-])cc1)Nc1cccnc1 | inconclusive [falling, single point] | – |
| CCn1c(C)c(CS(=O)(=O)c2ccccc2)[nH]c1=O | inconclusive [activator, partial curve] | – |
| COc1ccc(-c2cc(-c3c(O)c(OC)c4occc4c3OC)[nH]n2)cc1OC | – | inactive: 2.95% |
| COc1cc2c(cc1OC)C(COc1ccc(F)cc1)NCC2 (configuration not stated) | inconclusive [falling, full curve, poor fit] | – |
| CCC(=O)Oc1ccc(C(CC)C(CC)c2ccc(OC(=O)CC)cc2)cc1 (configuration not stated) | inconclusive [activator, single point] | – |
| O=C(Nc1ccnn1C1CCN(CC(O)CO)CC1)C1CCCC1 (configuration not stated) | inconclusive [falling, single point] | – |
| Cc1cc(NC(=O)C(=O)NCc2cccc(Cl)c2)no1 | inconclusive [falling, partial curve] | – |
| Cc1nnc(Sc2cc(NCCO)c([N+](=O)[O-])c3nonc23)s1 | active: 5.36 µM | – |
| O=C1CC(=O)N(Cc2ccco2)C(=O)N1 | active: 23.9 µM | – |
| CN1CCN(S(=O)(=O)c2ccc(NC(=O)Nc3cccc(Cl)c3)cc2)CC1 | inconclusive [falling, partial curve] | – |
| O=C(COc1ccc([N+](=O)[O-])cc1)NNC(=S)NC(=O)c1ccc(Br)cc1 | inconclusive [falling, single point] | – |
| CCc1cc2c(=O)c(-c3nc4ccccc4[nH]3)coc2c(CN2CCCCC2C)c1O (configuration not stated) | – | inactive: 0.944% |
| CCOc1cc(N2CCOCC2)c(OCC)cc1NS(=O)(=O)c1ccc(Cl)s1 | inconclusive [falling, single point] | – |
| Cc1cc2ncc(C(=O)Nc3ccccc3)c(C)n2n1 | inconclusive [falling, single point] | – |
| N#Cc1c(N)nc2c(c1N)CC(COc1ccccc1)O2 (configuration not stated) | inconclusive [activator, partial curve] | – |
| CC[n+]1c(C)sc2cc(C)ccc21 | inconclusive [activator, partial curve] | – |
| Cc1ccc(C)c(OCC(=O)Nc2cc(C(=O)O)cc(C(=O)O)c2)c1 | inconclusive [activator, single point] | – |
| CC(=O)c1cc(Cc2csc(C(C)=O)c2)cs1 | active: 26.9 µM | – |
| CC1=C/C(=C(/c2ccc(O)c(C)c2)c2ccccc2S(=O)(=O)O)C=CC1=O | – | inactive: 0.525% |
| O=C1COc2ccc(C(=O)COC(=O)/C=C/c3ccc(Br)o3)cc2N1 | inconclusive [falling, full curve] | – |

| SMILES | Potency | activity, negative = inhibition |
| --- | --- | --- |
| CCN(CC(=O)NCc1ccc(Cl)cc1)C(=O)COc1ccc(Cl)cc1Br | – | inactive: 1.53% |
| Cc1ccc(S(=O)(=O)NCCn2c(C)cc3ccccc32)cc1 | – | inactive: 0.442% |
| CCOC(=O)c1c(/N=C/N(C)C)sc(/C=N/Nc2ccccc2)c1-c1ccccc1Cl | – | inactive: 2.57% |
| Cc1cccc(NC(=O)/C(=C\c2ccc([N+](=O)[O-])o2)NC(=O)c2ccc(Cl)cc2)c1 | inconclusive [falling, single point] | – |
| O=C(NCc1ccco1)C1CCCN(c2nnc(-n3cccc3)s2)C1 (configuration not stated) | inconclusive [falling, single point] | – |
| O=C(NCC1CCCO1)C(=O)N/N=C/c1ccc(O)c(Cl)c1 (configuration not stated) | – | inactive: 7.8% |
| Oc1c(Br)cc(/C=N/Nc2nncc3ccccc23)cc1Br | inconclusive [activator, partial curve] | – |
| Cc1nc2ccccc2n1CCc1nc2c3ccccc3nc(=S)n2[nH]1 | – | inactive: 1.98% |
| N#CC1=C(N)Oc2cc(O)c(Cl)cc2C1c1ccccc1F (configuration not stated) | – | inactive: 0.0697% |
| CC1CCN(c2ccc3nnc(CCC(=O)N4CCN(c5ccc(F)cc5)CC4)n3n2)CC1 | inconclusive [falling, single point] | – |
| COC(=O)c1cc(CN2CCN(c3ccccc3C)CC2)ccc1O | – | inactive: -1.39% |
| Cc1c(C(=O)OCC(=O)NCc2ccco2)oc2ccccc12 | inconclusive [falling, single point] | – |
| COCCN(C(=O)CCc1ccccc1OC)c1nnc(-c2cccnc2)s1 | – | inactive: 2.47% |
| Cc1cc(C)n(-c2ccc(Cl)c(Cl)c2)n1 | inconclusive [falling, single point] | – |
| O=C(Nc1c(C(=O)N2CCOCC2)cnn1-c1ccccc1)c1ccc([N+](=O)[O-])cc1 | inconclusive [falling, single point] | – |
| O=C1Nc2ccccc2N(O)N1c1cc(-c2cccc(Cl)c2)no1 | inconclusive [activator, single point] | – |
| CCOC(=O)CSC1=NC(=O)/C(=C/c2ccc(OC)cc2)S1 | – | inactive: 2.41% |
| CN(Cc1ccccc1)c1ncnc2ccc(Br)cc12 | – | inactive: -2.17% |
| Nc1ccc2nc(-c3ccc(N)c(Cl)c3)[nH]c2c1 | inconclusive [activator, single point] | – |
| COCCn1c(SCC(=O)Nc2ccc(F)cc2)nc2ccccc2c1=O | – | inactive: 1.61% |
| CCC(C)Nc1nnc(SCC(=O)c2c(N)n(C3CC3)c(=O)[nH]c2=O)s1 (configuration not stated) | inconclusive [falling, single point] | – |
| CC(=O)NC(C)c1ccc(Cl)c(Cl)c1 (configuration not stated) | inconclusive [falling, partial curve] | – |
| O=C(Nc1ccc(S(=O)(=O)NC2=NCCCCC2)cc1)c1ccc(Cl)c([N+](=O)[O-])c1 | inconclusive [falling, partial curve] | – |
| CC(C)C(=O)N1CCC(n2nccc2NC(=O)CCOc2ccccc2)CC1 | – | inactive: 0% |
| O=C(COc1ccc(Cl)cc1Cl)NC(=S)Nc1ccccc1C(=O)O | inconclusive [activator, single point] | – |
